# Data as given in the supplement of paper PMC11417369.
# ± gives the standard deviation of the averaged measurements. This is one part of the list.
# System: PfAP2-I AP2 domain 3 (GST-tagged)
# Assay: gcPBM binding intensity (ln(normalized median fluorescence intensity)); higher = stronger DNA binding
# Procedure, shortened: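 Binding of GST-tagged P. falciparum DNA-binding domains, expressed in E. coli and used at about 25 μg on average, was carried out for 1 h in 1× PBS containing 1% milk, 0.2 mg/ml BSA, 0.5% salmon testes DNA and 0.03% Triton X-100. The target was an Agilent 4 × 180k array of primer-extended double-stranded 36-bp intergenic genomic probes plus negative controls, read with Alexa488 anti-GST antibody at 488 nm. Binding intensity is the highest Masliner-normalised natural-log median intensity across replicate spots of either probe orientation.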
row,Sequence,gcPBM binding intensity (ln)
1,TTATTTTAAATTAACACATGCATAATATATGTATAT [TGCATGCA_site597],7.78 ± 0.47
2,TTTATGAAACAGTGCACACATAAAAATAAATACATA [CACACA_site5631],10.6 ± 0.59
3,AAAAAAATTTTAAAATGTACAAATTTTAATATATAT [XGTACX_site7628],7.75 ± 0.56
4,TTTTCAAAAATATACACACACATAAATATATGTATA [CACACA_site777],7.55 ± 0.49
5,TTATGAATATTGATGTATAAAAAAATATATATGTTA [XGTACX_negctrl_site390],7.74 ± 0.36
6,AAAGGTTTGCGTTGTGTGCACAAAATAAATATATAA,10.69 ± 0.071
7,GATATATAACTTTTAACACACAAAAAAAAAAAAAAT [CACACA_site7653],7.92 ± 0.29
8,GAAAATTCATAAAAATGTACTTATTATATTATTTAT [XGTACX_site2169],7.45 ± 0.49
9,TAAAATTATGTAATAACACACATATACAATACATAT [CACACA_site1236],7.75 ± 0.61
10,ATATATATATAAAGGAGTACATACATTAAAAAAAAA [XGTACX_site1095],8.97 ± 0.042
11,TCTTATTTAAAAATAGCACACATTATATATATATAT [CACACA_site8916],9.44 ± 0.26
12,AAAAAACATACATACACACACATAAATATATATATT [CACACA_site2699],7.77 ± 0.44
13,TCCTTGTTTGGTTTTTTTTTTTCTTCTTTTTTTTTT [CACACA_negctrl_site1355],7.61 ± 0.58
14,TATGAAACGATATATGTGCACATGAGGGAATATAGA [GTGCAC_site9611],9.91 ± 0.58
15,TTAAATGTTATATATTGTACATATAATATATGTATT [XGTACX_site1492],7.58 ± 0.29
16,ACACATACACATTAGGTGCACATAATTCAATATTAC [GTGCAC_site9862],10.79 ± 0.078
17,CATATAATATATCAATGTACATATATATTTTATAAA [XGTACX_site5901],7.66 ± 0.41
18,TTAGCAACTATTACTACACACATTTTTATATAATTT [CACACA_site1372],7.61 ± 1
19,TAATAAAAAAAGTGCACACACATAATATATATATAT [CACACA_site3340],9.93 ± 0.37
20,TATAAATCAATATGTACACACATATACATGTTGAAT [CACACA_site7460],7.61 ± 0.35
21,ATTATATACATATATATTGTATATACTATACATATG [XGTACX_negctrl_site545],7.44 ± 0.48
22,ATTGTCAAAACACGCACACACATATACATAATAACA [CACACA_site1742],8.2 ± 0.37

row,Sequence,gcPBM binding intensity (ln)
1,ATATATACCTATAACACACACATATTTATATTTATA [CACACA_site7257],7.96 ± 0.63
2,AAATAATATTGAAAAGTGCATATTTTTGTTGATATA,9.15 ± 0.21
3,AAATTTAAATAATGTGCGCATCTTAATATATATAAG [GTGCAC_site9890],8.97 ± 0.7
4,TCTTATAACAAAAAAAAATAAAAAATAAAACTATAT [GTGCAC_negctrl_site11],7.62 ± 0.66
5,CATATAAATAGACACACACACACATATAAATAAATA [CACACA_site7156],8.05 ± 0.17
6,TTTTCTATTTAATTGGTGCACTGATATATACACATA [GTGCAC_site9533],11.3 ± 0.54
7,ATATAACATATTAATAATATATTTATAATATGTTTA [GTGCAC_negctrl_site168],7.43 ± 0.29
8,TTATGTTATATATACACACACAAAAGAAAAAAAAAA [CACACA_site2987],7.96 ± 0.57
9,AGGTTAAAAATAAATACACACATTTGATGTCTGTAT [CACACA_site6596],7.43 ± 0.52
10,TTTTGAGAATATATGGGTACAAATAAATAAAAATAT [XGTACX_site1933],8.14 ± 0.57
11,ATATAAATAAAGAAATATATATATATATATATATAT [GTGCAC_negctrl_site668],9.19 ± 0.42
12,AACGCTTATTAGTTGTTGTATATGTGTTCACATATT [CACACA_negctrl_site379],7.54 ± 0.67
13,AAAAAACACGGACACACACACATATACATACATACA [CACACA_site5470],8.72 ± 0.52
14,ATTTATAGAGCTATATGTACATATATATATATTATT [XGTACX_site3704],7.83 ± 0.43
15,AATATAAATAATGTTAAACACACATACCGATATATA [CACACA_site8869],7.5 ± 0.64
16,AAAAGGTGGAAAAATGCATGCAGGCTATTCTATATA [TGCATGCA_site1034],8.48 ± 1.1
17,TTCCACCAATATATATGTACTTATAATATATATATA [XGTACX_site8700],8.98 ± 0.028
18,AATTACATATAATACTGTACGCTAATAAGAAAAAAA [XGTACX_site7413],8.12 ± 0.19
19,ACACATGTATTTGGTGCATGTTGTTAAAAAAATATT [TGCATGCA_site795],9.37 ± 0.071
20,TCATAGCTAGGATAACGTACAGAAAAGTGAAAAATT [XGTACX_site3322],8.19 ± 0.95
21,ATTCTAGTAATATATGTATATTTATATATGTATGTG [XGTACX_negctrl_site419],7.65 ± 0.31
22,TTTTTTTTTTGTTGTTGTACTCTTATATTTTTATAT [XGTACX_site6178],8.18 ± 0.64

row,Sequence,gcPBM binding intensity (ln)
1,GATCTATTGAGTGATACATGCAGGAAAATTAAAAAC [TGCATGCA_site729],8.69 ± 1.3
2,AAAAAGAAAAAAGAAAGTACAAATATACACATTTTT [XGTACX_site3343],7.44 ± 0.64
3,TTTTTATTATAAGGTCGTACAATTGTAATTATTGTA [XGTACX_site1413],7.78 ± 0.22
4,TTTTTTTTTTTATGCTCACACATTAATTTTTATACA [CACACA_site4527],8.11 ± 0.61
5,TATGTATGTATGTATGTATGCATGTCTAACACCTAA [TGCATGCA_site360],8.27 ± 0.71
6,TTTTTTTTTTTTTTTTAACACACATATATATATTTT [CACACA_site8585],8.26 ± 0.67
7,ATAAAAGATTTATACATACACACATATTATATTCAC [CACACA_site3714],7.76 ± 0.53
8,ATATATATGTATATAACATGCAACATTTAATAATAA [TGCATGCA_site1018],7.88 ± 0.49
9,TGTTTTTGTGATCATATGAAAAAATTACCTACAAGG [CACACA_negctrl_site279],7.88 ± 0.5
10,ATAGTTTTACACATTTGTACATAATTTACAACAAAA [XGTACX_site25],8.04 ± 0.54
11,ATAGTATCTGGTAGCTGTACGAGTCGTATAGTGCAG [XGTACX_site2542],9.36 ± 0.014
12,TTTCCGTATAATTTTGCACACGAATATAAATTTGAT [CACACA_site137],9.21 ± 0.014
13,AAAAAATATTATATATGTACATAATATTTTTTTTTT [XGTACX_site5909],7.47 ± 0.39
14,TTTAATCAAATTAAAAGTACAGAATTGTTCATGTAG [XGTACX_site1229],7.67 ± 0.57
15,ATATATATATATTCCACACACACACTAATAAAAAAA [CACACA_site9214],9.29 ± 0.12
16,AATATATAAGTGTTGTGTACTAAAGTATTTTCCTAT [XGTACX_site1622],7.88 ± 0.54
17,AAAAAAAAAAGACACACACACATATTTATTTATATA [CACACA_site6484],7.59 ± 0.35
18,AGTAGATATAAAAGGAGTACACATATATATATAAAT [XGTACX_site4375],8.14 ± 0.44
19,CATATACAGAAACACACACACACATAAATAAATATA [CACACA_site1343],7.7 ± 0.28
20,TTTAATTAAATATGTATATATATTCATGTATGTATA [GTGCAC_negctrl_site14],7.68 ± 0.26
21,AATATGGTTATATATATATATATATATATATATATT [GTGCAC_negctrl_site566],8.62 ± 0.49
22,CCTATCCATACATATACACACATATCTATTTATATA [CACACA_site1669],8.09 ± 0.68

row,Sequence,gcPBM binding intensity (ln)
1,TTTGAAATAAATAATGCACACTCTACATATATACGT [CACACA_site2244],11.1 ± 0.61
2,CAACATTTATATTTTACACACATCATTTAAGCGCTT [CACACA_site992],7.71 ± 0.68
3,TTATTATATAAAATAAATAACAAAAAAAATAAAATA [GTGCAC_negctrl_site548],7.61 ± 0.42
4,ATTGTTTTATATAGAACACACATAAAAATCTATATG [CACACA_site6681],7.65 ± 0.47
5,AAATAAAATACAAGTTGTACTATAAGCTTTTTATAT [XGTACX_site8021],7.67 ± 0.64
6,AAAAGAAATTTGGGCACATGCGAATTTATAATTTAT [TGCATGCA_site960],7.85 ± 0.78
7,TAAAGTATTACAACCACACACACACCGATATATTAT [CACACA_site9382],7.95 ± 0.42
8,TAATTTAATAATTAGACACACATGTCTAAAATAAAA [CACACA_site2527],7.69 ± 0.48
9,TATATATATATATATACATGCATATTTTTTATTTTT [TGCATGCA_site464],9.14 ± 0.21
10,TGTCTTATATATATTACACACTATATGAAAAAATAT [CACACA_site1487],8.24 ± 0.6
11,TATATTTATCTGATAACACACATAAATTAGACATTT [CACACA_site6887],7.6 ± 0.37
12,TTTTTTATATATATTTGTACATATTGCATGTTCCCT [XGTACX_site7143],8.19 ± 1.1
13,ATTTTTTTTTTTTTTTTTTTTGCACCATAAAATAAT [CACACA_negctrl_site1324],11.2 ± 0.56
14,TATATACTCAAACACACACACACATACACAGACATA [CACACA_site5025],7.97 ± 0.13
15,ATTTTGACATTATATAGTACATATAATTTACATTTA [XGTACX_site3024],8.06 ± 0.23
16,TATATATATATGTGTACACATTTGTCAGATTATATA [CACACA_site4813],9.4 ± 0.24
17,TATATATTCTTTTAATGTACATATTGTATTATATCC [XGTACX_site4501],7.86 ± 0.38
18,ATATATTTAAACAAAAGTACAAATCATAAATTCAAG [XGTACX_site3633],7.45 ± 0.44
19,ATTTTTTAAAAAGTAACACACACTCTTATATATAAT [CACACA_site9206],7.84 ± 0.64
20,TCTTTATCTTCTTATACACACATTTATTAAAAAAAA [CACACA_site445],8.24 ± 0.46
21,TGACATAAAAAATATACACACTATAATATTTATACT [CACACA_site6776],7.62 ± 0.42
22,TATATATATGAGTATACACACCTGATAAAGGTATAT [CACACA_site5462],8.05 ± 0.7
